Results taken from the RNAGym collection of RNA variant scans (doi:10.1073/pnas.2313332121).
Variants at the background level are over-represented here.

B1: TPR 5TU (parent)
chain: GGAUCUUCUCGAUCUAACAAAAAAGACAAAUCUGCCACAAAGCUUGAGAGCAUCUUCGGAUGCAGAGGCGGCAGCCUUCGGUGGCGCGAUAGCGCCAACGUUCUCAACUAUGACACGCAAAACGCGUGCUCCGUUGAAUGGAGUUUAUCAUG

Variants of: B1
Assay: polymerase ribozyme fitness, log enrichment relative to wild type (log ratio); higher = more active; in vitro selection for triplet polymerase activity
Procedure, shortened: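 Each subunit of a heterodimeric triplet polymerase ribozyme was represented by a PCR-built, transcribed mutant library that underwent triplicate single-round in vitro selection with frozen incubation at −7 °C. Extended constructs were recovered by gel excision, streptavidin-bead capture and RT-PCR, and Illumina sequencing of input and output libraries kept genotypes with ≥10 input reads and ≥1 read per output. Fitness is the logarithm of genotype enrichment relative to wild-type enrichment, from inverse-variance-weighted replicate averages, with a logarithm base of 2.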

| Variant | polymerase ribozyme fitness (log ratio) |
| --- | --- |
| C38U G83U C123U U148C | -2.21 |
| C38U G84U U127G | ≤ -4.2 |
| C38U G86A A137G A147U | -2.49 |
| C38U G86C C99G U109G C129A U148G | ≤ -4.2 |
| C38U G86U A91U G126U U134G A142G | ≤ -4.2 |
| C38U G86U G88C C99A | ≤ -4.2 |
| C38U G88A G92U G140A | ≤ -4.2 |
| C38U G88C G133U U144A | ≤ -4.2 |
| C38U G92A A97U U130G C131G A138U A150G U151G | ≤ -4.2 |
| C38U G92A C99A U127C | ≤ -4.2 |
| C38U G92A G141U U148C | ≤ -4.2 |
| C38U G92A U127G | ≤ -4.2 |
| C38U G126U | -0.118 |
| C38U G136U | -2.3 |
| C38U G140U | -2.77 |
| C38U U44A A47U G67C C69U G84A | ≤ -4.2 |
| C38U U44A G70C U134G | ≤ -4.2 |
| C38U U44A U55G C96A A110U G133A | ≤ -4.2 |
| C38U U44C G50C C103A C108A G117U U134G | ≤ -4.2 |
| C38U U44C G65C G68U A122C G136C | ≤ -4.2 |
| C38U U45A A49C A60G C69U | ≤ -4.2 |
| C38U U45A C79G C95A | ≤ -4.2 |
| C38U U45A G84U C129A A142C | ≤ -4.2 |
| C38U U53A | -1.72 |

| Variant | polymerase ribozyme fitness (log ratio) |
| --- | --- |
| C38U U53A G70A C93U A107G U139C | ≤ -4.2 |
| C38U U53A U61A | -1.44 |
| C38U U53G C96G | -1.73 |
| C38U U55A | -0.159 |
| C38U U55A A60G C75G C76G A115U A122U C125G | ≤ -4.2 |
| C38U U55A A64G C75A | ≤ -4.2 |
| C38U U55A C85U | -0.272 |
| C38U U55A G58C C87A G128A A147C | ≤ -4.2 |
| C38U U55A G59C U135C | -1.98 |
| C38U U55G C85A | -2.3 |
| C38U U55G U56A C72A G92C C125A U144A | ≤ -4.2 |
| C38U U56A G81C U82C G88A C105A C129G | ≤ -4.2 |
| C38U U61A G84A C108A U111G G140A | ≤ -4.2 |
| C38U U61C U145A | -2.49 |
| C38U U77A G80A | ≤ -4.2 |
| C38U U77C C93A C103G | ≤ -4.2 |
| C38U U77C G141U | ≤ -4.2 |
| C38U U77G A91G C103U A110C A113G C114U | ≤ -4.2 |
| C38U U82A A91C A98G U144C | ≤ -4.2 |
| C38U U90A A98U | ≤ -4.2 |
| C38U U90A C96U A107G A137C | ≤ -4.2 |
| C38U U104A C116A G133U | ≤ -4.2 |
| C38U U145A | 0.631 |
| A39C A40C U53A C63G C95U C103U G128C | ≤ -4.2 |

| Variant | polymerase ribozyme fitness (log ratio) |
| --- | --- |
| A39C A40G A49C G80U G86U A106C A150C | ≤ -4.2 |
| A39C A40G C75A C87U | ≤ -4.2 |
| A39C A40G C93U A97G A107G U134G | ≤ -4.2 |
| A39C A40G U61A G71A A91C A106G | ≤ -4.2 |
| A39C A40U U61A A64G C79G G83A C95G C103U G133U | ≤ -4.2 |
| A39C A41C G59A G83U C95A C108U | ≤ -4.2 |
| A39C A41C G65A C96A C103A U111G | ≤ -4.2 |
| A39C A41C U55A C76G G81A U90G C93G C131G | ≤ -4.2 |
| A39C A47C G58C C87G U102C C108U G140U A142G | ≤ -4.2 |
| A39C A47C U55G C87U A107G | ≤ -4.2 |
| A39C A47C U127A | ≤ -4.2 |
| A39C A49C C96U C125U | ≤ -4.2 |
| A39C A49C G83A A98G G126A G143U | ≤ -4.2 |
| A39C A49G A64C U77C C129G | ≤ -4.2 |
| A39C A49G C51U U55G A119U | ≤ -4.2 |
| A39C A52U G83U A89C | ≤ -4.2 |
| A39C A52U U55A | ≤ -4.2 |
| A39C A60U C85G A98G U139G | ≤ -4.2 |
| A39C A60U C93G A106U C125U | ≤ -4.2 |
| A39C A66G G88A C93G C116G G128U U139A | ≤ -4.2 |
| A39C A89G C95U A115C A120U G126U U135G | ≤ -4.2 |
| A39C A91C A137G | ≤ -4.2 |
| A39C A91U G92A U139G | ≤ -4.2 |
| A39C A97U G133A U134A | ≤ -4.2 |

| Variant | polymerase ribozyme fitness (log ratio) |
| --- | --- |
| A39C A142U | -3.34 |
| A39C C43G G92C U101G C116U C118A A137U | ≤ -4.2 |
| A39C C51G C76U C85A | ≤ -4.2 |
| A39C C54A G81A | -3.05 |
| A39C C54G C87U G133A A137C G152U | ≤ -4.2 |
| A39C C54G G58C G117U G124U U134C | ≤ -4.2 |
| A39C C57A C85G A110C G136U | ≤ -4.2 |
| A39C C57G A89U A97G | -3.41 |
| A39C C57U C76A G80A C85G | ≤ -4.2 |
| A39C C75A C114A C118U | ≤ -4.2 |
| A39C C75U G81A C96U A97G U101A G141C | ≤ -4.2 |
| A39C C76G A137C | ≤ -4.2 |
| A39C C79A C93U U102A | ≤ -4.2 |
| A39C C79G G92A | -3.32 |
| A39C C79U G94C A119C | ≤ -4.2 |
| A39C C85U C149U | -2.98 |
| A39C C93U | -3.4 |
| A39C C96U A142U U144G A147C A150C | ≤ -4.2 |
| A39C C96U C114G C131G | ≤ -4.2 |
| A39C C118U A120U | -1.81 |
| A39C G42A C76U | ≤ -4.2 |
| A39C G46A C54U G83U A89G U104G C114A | ≤ -4.2 |
| A39C G46A C85A | ≤ -4.2 |
| A39C G46A G84A C99U C123U U135C | ≤ -4.2 |

| Variant | polymerase ribozyme fitness (log ratio) |
| --- | --- |
| A39C G46A U102A A113U U139A U144G | ≤ -4.2 |
| A39C G46C G71U C93U C116U G140A A147U | ≤ -4.2 |
| A39C G48U G84C | ≤ -4.2 |
| A39C G50A C69G C95U C114A | ≤ -4.2 |
| A39C G50C U55A U56A G92A U102A C105U A110G | ≤ -4.2 |
| A39C G58A C85A C95A A142C | ≤ -4.2 |
| A39C G58C A97U A98C C125U | -3.95 |
| A39C G59A C85A G86U U134C | ≤ -4.2 |
| A39C G59A C108U G143U | ≤ -4.2 |
| A39C G62A A73U G83C | ≤ -4.2 |
| A39C G65C G83C G143A A150U | ≤ -4.2 |
| A39C G68A A89G G128U A138G | ≤ -4.2 |
| A39C G68A G80C G92C | ≤ -4.2 |
| A39C G80A A97U G126U U144A | ≤ -4.2 |
| A39C G80U G84A C114G C125A | ≤ -4.2 |
| A39C G84A C85G U90G A91G U111A | ≤ -4.2 |
| A39C G86A C118G | ≤ -4.2 |
| A39C G86C C87U G126U | ≤ -4.2 |
| A39C G88U C103A A107U | ≤ -4.2 |
| A39C G94A | -2.88 |
| A39C G94U A106G G133A | ≤ -4.2 |
| A39C G126C A137G G143C | ≤ -4.2 |
| A39C G141U | -2.91 |
| A39C U44A A66G C69G C114U U135C | ≤ -4.2 |

| Variant | polymerase ribozyme fitness (log ratio) |
| --- | --- |
| A39C U44C C93U C108G A121C U139G | ≤ -4.2 |
| A39C U44G G50C A52G A142C | ≤ -4.2 |
| A39C U45A C85A A91U A98G | ≤ -4.2 |
| A39C U45G A73C G86A G141U | ≤ -4.2 |
| A39C U53A G86C A142G | ≤ -4.2 |
| A39C U53C G100U | ≤ -4.2 |
| A39C U53C U135C | -3.94 |
| A39C U53G C85U | -4.06 |
| A39C U55G G67C U78G G83U C93A U102A A121C | ≤ -4.2 |
| A39C U55G G81C A121U | -2.31 |
| A39C U56A C57A U77G G94A A119U A137G A138C | ≤ -4.2 |
| A39C U56A G88C A97C C103A | ≤ -4.2 |
| A39C U61A G84U U90C | ≤ -4.2 |
| A39C U61G C95G | ≤ -4.2 |
| A39G A40C G80C A91C C103G | ≤ -4.2 |
| A39G A40G A41U G58A G59U U61A C79A U144A G152C | ≤ -4.2 |
| A39G A40G C93A U144A | ≤ -4.2 |
| A39G A41G A73G G86C G92U | ≤ -4.2 |
| A39G A41U C75G C85G U109A | ≤ -4.2 |
| A39G A41U C85A U90G A98G C129A | ≤ -4.2 |
| A39G A49G G70A C87A G94A C99G G126A | ≤ -4.2 |
| A39G A49U U55A U56A A91U | ≤ -4.2 |
| A39G A52C C87A U102G C132U | ≤ -4.2 |
| A39G A52G C57G C87A C96A C116A C129U | ≤ -4.2 |

| Variant | polymerase ribozyme fitness (log ratio) |
| --- | --- |
| A39G A52G G68C C79U G152U | ≤ -4.2 |
| A39G A52U U56A C75U U78G U104A U144C | ≤ -4.2 |
| A39G A60U G92A C118G A120G U148G | ≤ -4.2 |
| A39G A66C G74C G80C C105G G133C | ≤ -4.2 |
| A39G A89G G92A G141C | -3.85 |
| A39G A115C | -3.17 |
| A39G C54G C57A | -3.22 |
| A39G C54G C63A G70C C93U G141A | ≤ -4.2 |
| A39G C57G C105G A147U | -3.4 |
| A39G C69A G70A U134C | ≤ -4.2 |
| A39G C72A G124U | ≤ -4.2 |
| A39G C75G A89U G92C C103A A142U | ≤ -4.2 |
| A39G C75U A98G C132U C149A | ≤ -4.2 |
| A39G C76A A150C | ≤ -4.2 |
| A39G C76G G117A | ≤ -4.2 |
| A39G C79U G83U G88A A89U A98G | ≤ -4.2 |
| A39G C87G C108U | ≤ -4.2 |
| A39G C87G U135G G141C | ≤ -4.2 |
| A39G C96G C116U A119U A150C | ≤ -4.2 |
| A39G C96U C116U | -1.75 |
| A39G C96U C125A | -2.58 |
| A39G C118U | -1.27 |
| A39G G42A C57U C69U C72G U77C G92U C103U | ≤ -4.2 |
